According to paper PMC8854406:
Results are given in words; binding and its absence hold for the method and conditions named. For some of these results: Binding seen in cells or lysates may run through a third protein. Some entries that bind do so weakly or less than the wild type. Sequences can lack the tags named with a protein.

Tests used:
[1] = target: T1, His-SUMO-tagged C-terminal fragment of the KIRREL1 ICD (ICD77 C-ter, a.a. 681-757) (UniProt Q96J84); assay: pull-down; Ni-NTA pull-down: purified His-SUMO-tagged KIRREL1 ICD fragments bound to Ni-NTA resin, incubated with HEK293T cell lysates expressing MST1 or SAV1 in NP40 lysis buffer overnight at 4 °C; washed four times; western blot; only the target purified
T1 sequence: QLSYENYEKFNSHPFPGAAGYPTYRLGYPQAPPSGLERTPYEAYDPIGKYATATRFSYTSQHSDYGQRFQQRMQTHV

[2] = target: T2, His-SUMO-tagged N-terminal fragment of the KIRREL1 ICD (ICD80 N-ter, a.a. 521-600) (UniProt Q96J84); assay: as above
T2 sequence: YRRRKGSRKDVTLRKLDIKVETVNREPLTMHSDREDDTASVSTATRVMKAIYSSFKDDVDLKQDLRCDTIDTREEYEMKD

[3] = target: T3, KIRREL1 ICD Δ2 mutant (a.a. 601-680 deleted) (UniProt Q96J84); assay: co-IP; HEK293T cells co-transfected; NP40 lysis buffer; cleared lysates incubated with anti-Flag tag or anti-Myc tag magnetic beads overnight at 4 °C; beads washed four times; immunoblot
T3 sequence: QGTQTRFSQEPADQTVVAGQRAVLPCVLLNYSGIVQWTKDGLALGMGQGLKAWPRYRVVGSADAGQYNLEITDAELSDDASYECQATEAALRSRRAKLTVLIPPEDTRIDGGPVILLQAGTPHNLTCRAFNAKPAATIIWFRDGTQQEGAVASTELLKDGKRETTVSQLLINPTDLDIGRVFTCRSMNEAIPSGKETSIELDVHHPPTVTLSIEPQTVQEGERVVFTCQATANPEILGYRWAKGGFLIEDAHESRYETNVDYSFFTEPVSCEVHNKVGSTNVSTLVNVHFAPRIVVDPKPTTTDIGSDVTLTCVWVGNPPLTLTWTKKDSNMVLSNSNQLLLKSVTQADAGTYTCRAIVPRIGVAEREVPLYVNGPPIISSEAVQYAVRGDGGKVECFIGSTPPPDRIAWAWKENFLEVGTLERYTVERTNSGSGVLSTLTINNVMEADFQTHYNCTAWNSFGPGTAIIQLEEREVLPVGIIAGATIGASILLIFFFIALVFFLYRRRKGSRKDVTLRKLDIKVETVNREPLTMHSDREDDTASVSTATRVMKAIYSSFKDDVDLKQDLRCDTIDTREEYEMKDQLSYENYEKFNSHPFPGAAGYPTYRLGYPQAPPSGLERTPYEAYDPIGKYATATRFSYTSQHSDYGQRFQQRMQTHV

[4] = target: T4, KIRREL1 ICD Δ1 mutant (a.a. 521-600 deleted) (UniProt Q96J84); assay: as above
T4 sequence: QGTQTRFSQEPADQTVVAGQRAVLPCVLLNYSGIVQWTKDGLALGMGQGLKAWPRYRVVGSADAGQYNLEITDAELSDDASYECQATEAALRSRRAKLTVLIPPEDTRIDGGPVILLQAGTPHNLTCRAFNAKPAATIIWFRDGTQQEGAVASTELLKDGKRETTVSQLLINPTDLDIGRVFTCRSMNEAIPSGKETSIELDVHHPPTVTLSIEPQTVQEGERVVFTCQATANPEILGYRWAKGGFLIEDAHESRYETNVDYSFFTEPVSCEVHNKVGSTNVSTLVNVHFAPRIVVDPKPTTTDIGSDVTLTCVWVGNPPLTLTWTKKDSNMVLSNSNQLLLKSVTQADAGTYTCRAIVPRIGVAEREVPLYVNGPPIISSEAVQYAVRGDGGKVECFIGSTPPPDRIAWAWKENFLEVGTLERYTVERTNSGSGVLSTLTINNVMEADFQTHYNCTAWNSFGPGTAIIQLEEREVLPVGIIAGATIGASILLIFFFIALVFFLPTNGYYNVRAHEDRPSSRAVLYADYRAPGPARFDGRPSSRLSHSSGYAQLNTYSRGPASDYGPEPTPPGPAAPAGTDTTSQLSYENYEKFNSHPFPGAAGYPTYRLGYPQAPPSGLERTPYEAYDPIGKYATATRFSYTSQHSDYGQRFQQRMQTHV

[5] = target: T5, KIRREL1 ICD Δ3 mutant (a.a. 681-757 deleted) (UniProt Q96J84); assay: as above
T5 sequence: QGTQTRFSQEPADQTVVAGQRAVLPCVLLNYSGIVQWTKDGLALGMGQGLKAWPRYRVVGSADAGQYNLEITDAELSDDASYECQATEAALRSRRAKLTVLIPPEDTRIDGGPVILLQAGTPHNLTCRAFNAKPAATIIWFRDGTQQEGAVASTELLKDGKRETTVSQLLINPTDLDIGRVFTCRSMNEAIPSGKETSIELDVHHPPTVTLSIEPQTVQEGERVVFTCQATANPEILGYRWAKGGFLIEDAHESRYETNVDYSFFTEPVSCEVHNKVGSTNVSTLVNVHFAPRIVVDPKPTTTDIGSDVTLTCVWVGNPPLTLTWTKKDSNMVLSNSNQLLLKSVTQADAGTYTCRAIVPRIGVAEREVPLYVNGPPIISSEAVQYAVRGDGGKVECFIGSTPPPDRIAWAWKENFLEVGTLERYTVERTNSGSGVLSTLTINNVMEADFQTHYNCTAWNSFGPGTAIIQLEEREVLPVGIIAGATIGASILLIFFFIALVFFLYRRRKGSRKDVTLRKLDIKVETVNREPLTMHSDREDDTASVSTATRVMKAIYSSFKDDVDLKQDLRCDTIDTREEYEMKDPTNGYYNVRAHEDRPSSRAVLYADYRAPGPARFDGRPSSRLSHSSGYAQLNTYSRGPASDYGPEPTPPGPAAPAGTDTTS

[6] = target: T6, KIRREL1 ΔICD mutant (lacking the ICD, a.a. 521-757) (UniProt Q96J84); assay: as above
T6 sequence: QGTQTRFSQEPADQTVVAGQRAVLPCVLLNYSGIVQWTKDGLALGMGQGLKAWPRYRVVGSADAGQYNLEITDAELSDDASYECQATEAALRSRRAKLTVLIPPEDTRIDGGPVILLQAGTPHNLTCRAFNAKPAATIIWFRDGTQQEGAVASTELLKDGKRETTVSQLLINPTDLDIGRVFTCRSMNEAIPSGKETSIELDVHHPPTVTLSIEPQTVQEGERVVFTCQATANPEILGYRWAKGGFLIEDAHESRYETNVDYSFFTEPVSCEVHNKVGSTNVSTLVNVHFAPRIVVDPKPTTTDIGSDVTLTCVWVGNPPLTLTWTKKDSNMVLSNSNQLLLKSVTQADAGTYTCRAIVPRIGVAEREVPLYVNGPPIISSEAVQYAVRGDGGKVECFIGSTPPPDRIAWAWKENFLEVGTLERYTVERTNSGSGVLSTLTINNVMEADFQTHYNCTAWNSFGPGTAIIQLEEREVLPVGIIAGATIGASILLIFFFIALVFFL

[7] = target: T7, Myc-KIRREL1-HA (full-length KIRREL1) (UniProt Q96J84); assay: as above
T7 sequence: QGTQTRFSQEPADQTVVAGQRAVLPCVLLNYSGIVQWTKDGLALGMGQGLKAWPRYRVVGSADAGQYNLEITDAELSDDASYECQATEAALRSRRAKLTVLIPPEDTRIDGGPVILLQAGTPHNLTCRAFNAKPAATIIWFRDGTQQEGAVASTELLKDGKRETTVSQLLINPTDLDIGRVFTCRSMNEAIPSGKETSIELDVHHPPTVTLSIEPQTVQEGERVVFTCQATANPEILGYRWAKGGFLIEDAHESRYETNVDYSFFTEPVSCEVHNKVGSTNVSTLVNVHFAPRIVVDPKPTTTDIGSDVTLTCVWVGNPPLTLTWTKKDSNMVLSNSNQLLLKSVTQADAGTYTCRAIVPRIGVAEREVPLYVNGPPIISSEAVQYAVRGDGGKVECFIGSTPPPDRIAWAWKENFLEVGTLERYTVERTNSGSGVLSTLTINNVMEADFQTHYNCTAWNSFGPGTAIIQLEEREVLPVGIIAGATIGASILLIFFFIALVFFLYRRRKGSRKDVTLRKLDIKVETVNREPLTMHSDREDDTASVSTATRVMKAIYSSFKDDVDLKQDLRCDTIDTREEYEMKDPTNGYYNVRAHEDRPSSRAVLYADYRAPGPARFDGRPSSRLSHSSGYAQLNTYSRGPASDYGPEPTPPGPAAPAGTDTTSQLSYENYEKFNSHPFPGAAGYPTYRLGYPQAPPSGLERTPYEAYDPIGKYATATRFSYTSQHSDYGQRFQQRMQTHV

[8] = target: T1, His-SUMO-tagged C-terminal fragment of the KIRREL1 ICD (ICD77 C-ter, a.a. 681-757); assay: pull-down; Ni-NTA pull-down: purified His-SUMO-tagged KIRREL1 ICD fragments bound to Ni-NTA resin, incubated with purified SAV1 (Origene) in NP40 lysis buffer for 4 h at 4 °C; washed four times; western blot; both purified
[9] = target: T2, His-SUMO-tagged N-terminal fragment of the KIRREL1 ICD (ICD80 N-ter, a.a. 521-600); assay: as above
[10] = target: T8, Myc-KIRREL1-HA (full-length KIRREL1), Q96J84; assay: co-IP; HEK293T cells co-transfected; NP40 lysis buffer; cleared lysates incubated with anti-Flag tag or anti-Myc tag magnetic beads overnight at 4 °C; beads washed four times; immunoblot; conditions: remark: other sources report otherwise
T8 chain: T7 sequence

B1: Flag-tagged SAV1 (full length) (protein, UniProt Q9H4B6 1-383)
chain: MLSRKKTKNEVSKPAEVQGKYVKKETSPLLRNLMPSFIRHGPTIPRRTDICLPDSSPNAFSTSGDVVSRNQSFLRTPIQRTPHEIMRRESNRLSAPSYLARSLADVPREYGSSQSFVTEVSFAVENGDSGSRYYYSDNFFDGQRKRPLGDRAHEDYRYYEYNHDLFQRMPQNQGRHASGIGRVAATSLGNLTNHGSEDLPLPPGWSVDWTMRGRKYYIDHNTNTTHWSHPLEREGLPPGWERVESSEFGTYYVDHTNKKAQYRHPCAPSVPRYDQPPPVTYQPQQTERNQSLLVPANPYHTAEIPDWLQVYARAPVKYDHILKWELFQLADLDTYQGMLKLLFMKELEQIVKMYEAYRQALLTELENRKQRQQWYAQQHGKNF
[1]
  binding: binds
[2]
  binding: no binding
[3]
  binding: binds
[4]
  binding: binds
[5]
  binding: no binding
[6]
  binding: no binding
[7]
  binding: binds

B2: purified Flag-SAV1 (Origene) (protein, UniProt Q9H4B6 1-383)
chain: B1 chain
[8]
  binding: binds
[9]
  binding: no binding

B3: Flag-tagged MST1, Q13043 1-487 (enzyme)
chain: METVQLRNPPRRQLKKLDEDSLTKQPEEVFDVLEKLGEGSYGSVYKAIHKETGQIVAIKQVPVESDLQEIIKEISIMQQCDSPHVVKYYGSYFKNTDLWIVMEYCGAGSVSDIIRLRNKTLTEDEIATILQSTLKGLEYLHFMRKIHRDIKAGNILLNTEGHAKLADFGVAGQLTDTMAKRNTVIGTPFWMAPEVIQEIGYNCVADIWSLGITAIEMAEGKPPYADIHPMRAIFMIPTNPPPTFRKPELWSDNFTDFVKQCLVKSPEQRATATQLLQHPFVRSAKGVSILRDLINEAMDVKLKRQESQQREVDQDDEENSEEDEMDSGTMVRAVGDEMGTVRVASTMTDGANTMIEHDDTLPSQLGTMVINAEDEEEEGTMKRRDETMQPAKPSFLEYFEQKEKENQINSFGKSVPGPLKNSSDWKIPQDGDYEFLKSWTVEDLQKRLLALDPMMEQEIEEIRQKYQSKRQPILDAIEAKKRRQQNF
[10]
  binding: no binding
